This is one part of the list.
B1: Q9UKT9 (peptide)
chain: FFCNICGAKFTQKGNLLRHIKL
B2: Q9UKT9 (peptide)
chain: FQCEICGHFFTQKGNLLRHIKL
B3: Q9UKT9 (peptide)
chain: FACDVCGAQFTQKGNLLRHIKL
B4: Q9UKT9 (peptide)
chain: LQCEICGFNCTQKGNLLRHIKL
B5: Q9UKT9 (peptide)
chain: FRCPQCGAPFTQKGNLLRHIKL
B6: Q9UKT9 (peptide)
chain: FLCPQCGADFTQKGNLLRHIKL
B7: Q9UKT9 (peptide)
chain: LWCPICGFICTQKGNLLRHIKL
B8: Q9UKT9 (peptide)
chain: FECNQCGHQFTQKGNLLRHIKL
B9: Q9UKT9 (peptide)
chain: LFCPICGFACTQKGNLLRHIKL
B10: Q9UKT9 (peptide)
chain: LWCEICGFGCTQKGNLLRHIKL
B11: Q9UKT9 (peptide)
chain: FHCNICGATFTQKGNLLRHIKL
B12: Q9UKT9 (peptide)
chain: FLCEICGHDFTQKGNLLRHIKL
B13: Q9UKT9 (peptide)
chain: FQCNQCGAQFTQKGNLLRHIKL
B14: Q9UKT9 (peptide)
chain: FMCPICGAKFTQKGNLLRHIKL
B15: Q9UKT9 (peptide)
chain: FGCEQCGAWFTQKGNLLRHIKL
B16: Q9UKT9 (peptide)
chain: LYCNQCGFHCTQKGNLLRHIKL
B17: Q9UKT9 (peptide)
chain: FCCSVCGHKFTQKGNLLRHIKL
B18: Q9UKT9 (peptide)
chain: FWCEICGRGFTQKGNLLRHIKL
B19: Q9UKT9 (peptide)
chain: FICPICGAIFTQKGNLLRHIKL
B20: Q9UKT9 (peptide)
chain: LVCPICGFGCTQKGNLLRHIKL
B21: Q9UKT9 (peptide)
chain: FLCDICGACFTQKGNLLRHIKL
B22: Q9UKT9 (peptide)
chain: FVCDQCGAAFTQKGNLLRHIKL
B23: Q9UKT9 (peptide)
chain: LCCNQCGFFCTQKGNLLRHIKL
B24: Q9UKT9 (peptide)
chain: LACNQCGFECTQKGNLLRHIKL
B25: Q9UKT9 (peptide)
chain: FTCPVCGANFTQKGNLLRHIKL
B26: Q9UKT9 (peptide)
chain: FFCDVCGAPFTQKGNLLRHIKL
B27: Q9UKT9 (peptide)
chain: FSCEICGRWFTQKGNLLRHIKL
B28: Q9UKT9 (peptide)
chain: FNCNVCGAIFTQKGNLLRHIKL
B29: Q9UKT9 (peptide)
chain: FCCEICGHNFTQKGNLLRHIKL
B30: Q9UKT9 (peptide)
chain: FMCNVCGASFTQKGNLLRHIKL
B31: Q9UKT9 (peptide)
chain: LNCPICGFFCTQKGNLLRHIKL
B32: Q9UKT9 (peptide)
chain: FHCEVCGANFTQKGNLLRHIKL
B33: Q9UKT9 (peptide)
chain: FNCEQCGAYFTQKGNLLRHIKL
B34: Q9UKT9 (peptide)
chain: FTCDICGAYFTQKGNLLRHIKL
B35: Q9UKT9 (peptide)
chain: FHCDVCGAWFTQKGNLLRHIKL
B36: Q9UKT9 (peptide)
chain: FQCPICGADFTQKGNLLRHIKL
B37: Q9UKT9 (peptide)
chain: FDCEICGALFTQKGNLLRHIKL
B38: Q9UKT9 (peptide)
chain: FMCEICGRHFTQKGNLLRHIKL
B39: Q9UKT9 (peptide)
chain: FGCDICGAWFTQKGNLLRHIKL
B40: Q9UKT9 (peptide)
chain: FACSVCGHHFTQKGNLLRHIKL
B41: Q9UKT9 (peptide)
chain: FQCNQCGHHFTQKGNLLRHIKL
B42: Q9UKT9 (peptide)
chain: FCCNVCGAQFTQKGNLLRHIKL
B43: Q9UKT9 (peptide)
chain: FGCSVCGHEFTQKGNLLRHIKL
B44: Q9UKT9 (peptide)
chain: FRCNICGALFTQKGNLLRHIKL
B45: Q9UKT9 (peptide)
chain: LGCNQCGFECTQKGNLLRHIKL
B46: Q9UKT9 (peptide)
chain: FWCPQCGAEFTQKGNLLRHIKL
B47: Q9UKT9 (peptide)
chain: FTCDICGAMFTQKGNLLRHIKL
B48: Q9UKT9 (peptide)
chain: FACNVCGAMFTQKGNLLRHIKL
B49: Q9UKT9 (peptide)
chain: FECEICGHGFTQKGNLLRHIKL
B50: Q9UKT9 (peptide)
chain: FICEVCGAHFTQKGNLLRHIKL

target: no compound (DMSO); test: log2 fold change of degron read counts, EGFP-low vs EGFP+ sorted cells; higher = lower degron-EGFP level without compound (poor expression or instability); settings: compound: DMSO control; 18 h
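Also: jurkat cells carrying a lentiviral library of mutant zinc finger degrons fused to EGFP plus mCherry, mCherry+ cells FACS sorted, degron abundance counted by next-generation sequencing.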

Row | Sequence | log2 fold change of degron read counts
1 | B1 | -0.668
2 | B2 | -0.576
3 | B3 | -1.5
4 | B4 | -0.235
5 | B5 | -0.296
6 | B6 | -1.82
7 | B7 | 3.31
8 | B8 | -1.55
9 | B9 | 1.5
10 | B10 | 1.67
11 | B11 | -0.13
12 | B12 | -2.1
13 | B13 | -1.48
14 | B14 | -0.285
15 | B15 | -0.613
16 | B16 | 1.08
17 | B17 | -0.245
18 | B18 | -1.49
19 | B19 | 0.726
20 | B20 | 0.592
21 | B21 | -1.43
22 | B22 | -2.51
23 | B23 | 2
24 | B24 | -0.903
25 | B25 | -0.558

Row | Sequence | log2 fold change of degron read counts
26 | B26 | -0.43
27 | B27 | -0.108
28 | B28 | 0.0151
29 | B29 | -1.62
30 | B30 | -1.06
31 | B31 | 1.8
32 | B32 | -2.77
33 | B33 | -0.517
34 | B34 | -1.26
35 | B35 | 0.0534
36 | B36 | -0.879
37 | B37 | -0.698
38 | B38 | -0.936
39 | B39 | -0.139
40 | B40 | -0.568
41 | B41 | 0.1
42 | B42 | -1.26
43 | B43 | -1.13
44 | B44 | -0.286
45 | B45 | 0.652
46 | B46 | -0.384
47 | B47 | -0.617
48 | B48 | -0.541
49 | B49 | -1.92
50 | B50 | -1.24
